Among all 310,000 compounds or so, about 2,200 (0.71%) showed an effect of 50% or more. Effects have a minus sign here. The list shows a part of the results.
molecular target: human ether-à-go-go-related gene (hERG) potassium channel (human, UniProt Q12809); assay: primary screen, population patch clamp on CHO cells stably expressing hERG
Sequence (Q12809 whole entry, looked up): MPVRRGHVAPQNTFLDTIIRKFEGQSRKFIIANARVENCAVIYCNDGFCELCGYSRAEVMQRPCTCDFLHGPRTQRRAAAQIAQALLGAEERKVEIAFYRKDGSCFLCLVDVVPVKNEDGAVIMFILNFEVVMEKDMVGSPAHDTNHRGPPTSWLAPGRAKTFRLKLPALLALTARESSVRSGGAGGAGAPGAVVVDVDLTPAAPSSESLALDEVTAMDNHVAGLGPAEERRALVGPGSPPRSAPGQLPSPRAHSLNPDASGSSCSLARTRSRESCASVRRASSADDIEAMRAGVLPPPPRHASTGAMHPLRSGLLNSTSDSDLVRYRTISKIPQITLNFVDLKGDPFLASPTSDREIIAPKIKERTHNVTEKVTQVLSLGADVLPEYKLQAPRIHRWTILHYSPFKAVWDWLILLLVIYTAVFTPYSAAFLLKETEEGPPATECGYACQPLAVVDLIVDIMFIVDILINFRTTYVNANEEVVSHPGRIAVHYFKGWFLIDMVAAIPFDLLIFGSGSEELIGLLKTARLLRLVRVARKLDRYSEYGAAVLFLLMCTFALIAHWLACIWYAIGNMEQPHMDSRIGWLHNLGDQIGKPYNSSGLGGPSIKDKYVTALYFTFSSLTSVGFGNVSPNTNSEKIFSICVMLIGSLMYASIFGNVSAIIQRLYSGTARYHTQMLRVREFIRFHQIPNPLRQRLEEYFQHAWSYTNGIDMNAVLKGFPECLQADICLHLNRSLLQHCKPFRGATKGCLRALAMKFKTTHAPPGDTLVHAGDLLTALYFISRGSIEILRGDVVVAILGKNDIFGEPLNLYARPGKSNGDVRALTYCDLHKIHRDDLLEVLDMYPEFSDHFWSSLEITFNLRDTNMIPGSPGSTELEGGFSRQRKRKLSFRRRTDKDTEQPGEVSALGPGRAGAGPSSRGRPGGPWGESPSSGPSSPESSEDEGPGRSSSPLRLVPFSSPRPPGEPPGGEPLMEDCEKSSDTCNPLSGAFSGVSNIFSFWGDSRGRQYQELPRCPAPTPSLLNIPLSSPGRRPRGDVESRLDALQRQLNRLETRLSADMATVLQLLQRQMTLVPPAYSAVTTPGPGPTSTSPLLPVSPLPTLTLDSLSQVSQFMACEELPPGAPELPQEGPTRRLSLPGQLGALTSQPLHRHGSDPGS

Row | Structure (SMILES) | hERG current change (%, negative = inhibition) at 1uM [%]
1 | CNc1c(NS(=O)(=O)c2ccc(OC)cc2)c(=O)oc2ccccc12 | 13.4
2 | CCOCCCNC(=O)C(c1ccc(OC)cc1)N(Cc1cccs1)C(=O)CNC(C)=O (stereo not drawn) | 2.48
3 | O=C(Nc1cccc([N+](=O)[O-])c1)Nc1cccs1 | 7.66
4 | O=S(=O)(O)c1nc2ccccc2n1Cc1ccccc1 | 1.15
5 | N#Cc1ccc(NC(=O)CN2C(=O)NC(Cc3ccccc3)C2=O)cc1 (stereo not drawn) | -25.3
6 | CC(C)(C)c1ccc(C(=O)Nc2ccc(CN3CCS(=O)(=O)CC3)cc2)cc1 | 9.75
7 | O=C(N/N=C/C(Cl)=C/c1ccccc1)c1ccco1 | -1.34
8 | Cc1nn(C)cc1CN(C)C(=O)c1sc2cccc(Cl)c2c1Cl | 4.13
9 | Cc1ccc(CN2CCN(C(=O)c3ccco3)CC2)cc1 | 7.98
10 | COc1ccc(/C=C2\SC(=O)N(CCC(=O)N3CCCCC3CCO)C2=O)cc1 (stereo not drawn) | 12.9
11 | COc1ccccc1N1CCN(S(=O)(=O)c2c(C)ccc3nsnc23)CC1 | 4.03
12 | CCOc1ccc(NC(=O)CN2C(=O)COc3ccccc32)cc1 | 9.59
13 | COc1ccc(N2CCN(c3ccc([N+](=O)[O-])cc3Cl)CC2)cc1 | 0.487
14 | COc1ccc(S(=O)(=O)N2CCN(Cc3ccccc3)CC2)c(C)c1 | 9.47
15 | Cc1cc(C)nc(SCc2ccc(Br)cc2)n1 | 14.6
16 | COC(=O)c1ccc(N2CCS(=O)(=O)CC2)cc1 | 10
17 | CC(=O)[C@@]1(O)[C@H](C)CC2C3CC=C4CC(OP(=O)(O)O)CC[C@]4(C)C3CC[C@@]21C (stereo partly drawn) | 19.6
18 | COc1ccc(S(=O)(=O)NCCc2ccccc2)c2cccnc12 | 6.51
19 | O=C(NCCc1c[nH]c2ccccc12)/C(=C/c1ccco1)NC(=O)c1ccco1 | -19.2

Row | Structure (SMILES) | hERG current change (%, negative = inhibition) at 1uM [%]
20 | CSc1nc2nc(C(F)(F)F)cc(-c3ccccc3)n2n1 | 12.8
21 | CC(C)(C)NCc1cc2ccccc2[nH]c1=O | 8.1
22 | CC1(C)CC(=O)c2c(O)cc(O)cc2O1 | 19.7
23 | CC(Cc1c[nH]c2ccccc12)NC(=O)C1CCCNC1=O (stereo not drawn) | 7.37
24 | CCOc1ccc(C2C3=C(CCCC3=O)Nc3ccc4ncccc4c32)cc1 (stereo not drawn) | -2.96
25 | COc1cccc(C(=O)N2CCN(C(=O)c3cccc(F)c3)CC2)c1 | 9.55
26 | O=C(NC1CCS(=O)(=O)C1)C1CCCN(S(=O)(=O)c2ccc(Cl)cc2)C1 (stereo not drawn) | 8.62
27 | CCN(c1ccccc1)S(=O)(=O)c1ccc(OC)c(NC(=O)CNCC(C)O)c1.O=C(O)C(=O)O (stereo not drawn) | 7.73
28 | COc1cccc(CNC(=O)c2ccc(NC(=O)C3CCCO3)cc2)c1 (stereo not drawn) | -1.91
29 | O=C(Nc1ccccc1)NC1CC2CCC(C1)N2 (stereo not drawn) | 3.35
30 | Cc1ccc(CCNC(=O)CN(C)S(=O)(=O)c2ccc3c(c2)c(=O)n(C)c(=O)n3C)cc1 | 0.354
31 | CC(=O)N1N=C2c3ccccc3CCC2C1c1ccc(F)cc1 (stereo not drawn) | 8.1
32 | O=C(Cc1c(F)cccc1Cl)Nc1ccccn1 | 5.41
33 | CC1Oc2ccccc2N(CC(=O)N2CCCCC2)C1=O (stereo not drawn) | 13.2
34 | Cc1cc(NC(=O)Nc2ccccc2)n(-c2ccccc2)n1 | -0.0635
35 | O=c1[nH]c(=O)n(CCO)c2nnn(Cc3ccccc3)c12 | 16.3
36 | CCOc1ccccc1NC(=O)c1ccccc1-c1nc(-c2ccccc2OC)no1 | 4.28
37 | Cc1cccc(NC(=O)CCNS(=O)(=O)c2cccc3nonc23)c1 | 8.19
38 | COc1ccc(OC(=O)c2cc3ccccc3o2)cc1 | 16.7

Row | Structure (SMILES) | hERG current change (%, negative = inhibition) at 1uM [%]
39 | Cc1ccc(NC(=O)c2ccc(NS(=O)(=O)c3ccc4[nH]c(=O)[nH]c4c3)cc2)nc1 | 12.4
40 | CCOC(=O)c1c(C)[nH]c(C(=O)C(C)OC(=O)c2oc3ccccc3c2COC)c1C (stereo not drawn) | 7.1
41 | Cc1ccc(-n2cc(CNCCCn3ccnc3C)c(-c3ccc(F)cc3)n2)cc1 | 6.1
42 | O=C(NC1CCCCCC1)c1ccco1 | 12.7
43 | CCSc1nnc(NC(=O)CSc2nnc(CNC(=O)c3ccc(OC)c(OC)c3)o2)s1 | 3.76
44 | CCOC(=O)c1ccccc1NC(=O)COC(=O)C(CCSC)NC(=O)COc1ccccc1 (stereo not drawn) | 0.0097
45 | Cc1ccc(CNC(=O)CCC2CCCN(Cc3ccc4cccc(F)c4n3)C2)o1 (stereo not drawn) | -14.1
46 | CCCCCC(=O)Nc1cc(N(C)C)nc2ccccc12 | -77.9
47 | CCCC(=O)Nc1nnc(S(=O)(=O)N(CC)c2ccccc2)s1 | 12.7
48 | Clc1ccc2c(c1)C(c1cccs1)=NNC(c1cccnc1)=N2 | -9.42
49 | Cc1ccc(-n2ccc(=O)c(C(=O)O)n2)cc1 | 7.35
50 | COc1cc2nc(CN3CCN(C(c4ccccc4)c4ccccc4)CC3)[nH]c(=O)c2cc1OC | 8.85
51 | O=C(NC(=S)NNC(=O)c1ccccc1[N+](=O)[O-])c1ccccc1 | 10.5
52 | CC(C)NC(=O)NC(=O)COC(=O)C1(C)CC1(Cl)Cl (stereo not drawn) | -0.0575
53 | O=C(/N=C1/c2ccccc2CN1c1ccccc1)Nc1ccccc1 | 2.86
54 | COc1ccccc1NC(=O)CCSc1nnnn1C | 11.5
55 | Cc1ccc(N2C(=O)N3[C@H](c4ccc(F)cc4)[C@@H]4C(=O)N(C5CCCCC5)C(=O)[C@@H]4[C@]3(C)C2=O)cc1 | 13.1
56 | O=C(CCc1nc(-c2ccccc2)no1)NCc1ccco1 | 4.59
57 | CCCOc1ccc(C(=O)N(Cc2cccs2)C2CCS(=O)(=O)C2)cc1 (stereo not drawn) | 9.51
